# Experimental data from the supplement of paper PMC8728848.
# This is one part of the list.
# B1: HMGB1 (Rattus norvegicus), P63159 (protein)
# chain: MGKGDPKKPRGKMSSYAFFVQTCREEHKKKHPDASVNFSEFSKKCSERWKTMSAKEKGKFEDMAKADKARYEREMKTYIPPKGETKKKFKDPNAPKRPPSAFFLFCSEYRPKIKGEHPGLSIGDVAKKLGEMWNNTAADDKQPYEKKAAKLKEKYEKDIAAYRAKGKPDAAKKGVVKAEKSKKKKEEEDDEEDEEDEEEEEEEEDEDEEEDDDDE
# Experiments:
# Test in all cases: glycan array binding signal (z-score within array); higher = stronger binding
# Settings in all cases: glycan notation: IUPAC condensed, linker removed
# Neu5Ac(a2-3)Gal(b1-4)Glc = target: Neu5Ac(a2-3)Gal(b1-4)Glc
# Procedure, shortened: (§1)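 The Consortium for Functional Glycomics database supplied 3228 glycan arrays, of which those lacking an available protein sequence were dropped. The binding signal, a within-array Z-score, was averaged across arrays of the same protein sequence and across linkers. Negative scores can be read as non-binding.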
# [1] = target: Neu5Ac(a2-3)Gal(b1-4)GlcNAc
# Procedure, shortened: as §1
# [2] = target: Neu5Ac(a2-3)Gal(b1-4)GlcNAc(b1-3)Gal(b1-4)GlcNAc
# Procedure, shortened: as §1
# [3] = target: Neu5Ac(a2-3)Gal(b1-4)GlcNAc(b1-3)Gal(b1-4)GlcNAc(b1-3)Gal(b1-4)GlcNAc
# Procedure, shortened: as §1
# [4] = target: Neu5Ac(a2-3)Gal(b1-4)GlcNAc(b1-3)Gal(b1-4)[Fuc(a1-3)]GlcNAc
# Procedure, shortened: as §1
# [5] = target: Neu5Ac(a2-3)Gal(b1-4)GlcNAc6S
# Procedure, shortened: as §1
# [6] = target: Neu5Ac(a2-3)Gal(b1-4)[Fuc(a1-3)]GlcNAc
# Procedure, shortened: as §1
# [7] = target: Neu5Ac(a2-3)Gal(b1-4)[Fuc(a1-3)]GlcNAc(b1-3)Gal
# Procedure, shortened: as §1
# [8] = target: Neu5Ac(a2-3)Gal(b1-4)[Fuc(a1-3)]GlcNAc(b1-3)Gal(b1-4)GlcNAc
# Procedure, shortened: as §1
# [9] = target: Neu5Ac(a2-3)Gal(b1-4)[Fuc(a1-3)]GlcNAc(b1-3)Gal(b1-4)[Fuc(a1-3)]GlcNAc(b1-3)Gal(b1-4)[Fuc(a1-3)]GlcNAc
# Procedure, shortened: as §1
# [10] = target: Neu5Ac(a2-3)Gal(b1-4)[Fuc(a1-3)]GlcNAc6S
# Procedure, shortened: as §1
# [11] = target: Neu5Ac(a2-3)Gal6S(b1-4)GlcNAc
# Procedure, shortened: as §1
# [12] = target: Neu5Ac(a2-3)Gal6S(b1-4)[Fuc(a1-3)]GlcNAc
# Procedure, shortened: as §1
# Neu5Ac(a2-3)GalNAc = target: Neu5Ac(a2-3)GalNAc
# Procedure, shortened: as §1
# [13] = target: Neu5Ac(a2-3)GalNAc(b1-4)GlcNAc
# Procedure, shortened: as §1
# [14] = target: Neu5Ac(a2-3)[GalNAc(b1-4)]Gal(b1-4)Glc
# Procedure, shortened: as §1
# [15] = target: Neu5Ac(a2-3)[GalNAc(b1-4)]Gal(b1-4)GlcNAc
# Procedure, shortened: as §1
# [16] = target: Neu5Ac(a2-3)[Neu5Ac(a2-6)]GalNAc
# Procedure, shortened: as §1
# [17] = target: Neu5Ac(a2-6)Gal(b1-4)GlcNAc
# Procedure, shortened: as §1
# [18] = target: Neu5Ac(a2-6)Gal(b1-4)GlcNAc(b1-2)Man(a1-3)[Neu5Ac(a2-6)Gal(b1-4)GlcNAc(b1-2)Man(a1-6)]Man(b1-4)GlcNAc(b1-4)GlcNAc
# Procedure, shortened: as §1
# [19] = target: Neu5Ac(a2-6)Gal(b1-4)GlcNAc(b1-3)Gal(b1-4)GlcNAc
# Procedure, shortened: as §1
# [20] = target: Neu5Ac(a2-6)Gal(b1-4)GlcNAc(b1-3)Gal(b1-4)[Fuc(a1-3)]GlcNAc(b1-3)Gal(b1-4)[Fuc(a1-3)]GlcNAc
# Procedure, shortened: as §1
# [21] = target: Neu5Ac(a2-6)Gal(b1-4)GlcNAc6S
# Procedure, shortened: as §1
# Neu5Ac(a2-6)GalNAc = target: Neu5Ac(a2-6)GalNAc
# Procedure, shortened: as §1
# [22] = target: Neu5Ac(a2-6)GalNAc(b1-4)GlcNAc
# Procedure, shortened: as §1
# Neu5Ac(a2-8)Neu5Ac = target: Neu5Ac(a2-8)Neu5Ac
# Procedure, shortened: as §1
# [23] = target: Neu5Ac(a2-8)Neu5Ac(a2-3)Gal(b1-4)Glc
# Procedure, shortened: as §1
# [24] = target: Neu5Ac(a2-8)Neu5Ac(a2-3)[GalNAc(b1-4)]Gal(b1-4)Glc
# Procedure, shortened: as §1
# [25] = target: Neu5Ac(a2-8)Neu5Ac(a2-8)Neu5Ac
# Procedure, shortened: as §1
# [26] = target: Neu5Ac(a2-8)Neu5Ac(a2-8)Neu5Ac(a2-3)Gal(b1-4)Glc
# Procedure, shortened: as §1
# [27] = target: Neu5Ac(a2-8)Neu5Ac(a2-8)Neu5Ac(a2-3)[GalNAc(b1-4)]Gal(b1-4)Glc
# Procedure, shortened: as §1
# [28] = target: Neu5Ac(a2-8)Neu5Ac(a2-8)Neu5Ac(a2-8)Neu5Ac(a2-3)[GalNAc(b1-4)]Gal(b1-4)Glc
# Procedure, shortened: as §1
# [29] = target: Neu5Ac9Ac(a2-6)Gal(b1-4)GlcNAc
# Procedure, shortened: as §1
# [30] = target: Neu5Gc(a2-3)Gal(b1-3)GlcNAc
# Procedure, shortened: as §1
# [31] = target: Neu5Gc(a2-3)Gal(b1-3)[Fuc(a1-4)]GlcNAc
# Procedure, shortened: as §1
# Neu5Gc(a2-3)Gal(b1-4)Glc = target: Neu5Gc(a2-3)Gal(b1-4)Glc
# Procedure, shortened: as §1
# [32] = target: Neu5Gc(a2-3)Gal(b1-4)GlcNAc
# Procedure, shortened: as §1
# [33] = target: Neu5Gc(a2-3)Gal(b1-4)[Fuc(a1-4)]GlcNAc
# Procedure, shortened: as §1
# [34] = target: Neu5Gc(a2-6)Gal(b1-4)GlcNAc
# Procedure, shortened: as §1
# Neu5Gc(a2-6)GalNAc = target: Neu5Gc(a2-6)GalNAc
# Procedure, shortened: as §1
binder,measurement,setting,value
B1,glycan array binding signal (z-score),Neu5Ac(a2-3)Gal(b1-4)Glc,-0.38
same,glycan array binding signal (z-score),[1],1
same,glycan array binding signal (z-score),[2],-0.57
same,glycan array binding signal (z-score),[3],-0.169
same,glycan array binding signal (z-score),[4],2.06
same,glycan array binding signal (z-score),[5],-0.935
same,glycan array binding signal (z-score),[6],-0.141
same,glycan array binding signal (z-score),[7],-0.541
same,glycan array binding signal (z-score),[8],-0.249
same,glycan array binding signal (z-score),[9],-0.616
same,glycan array binding signal (z-score),[10],-0.331
same,glycan array binding signal (z-score),[11],0.304
same,glycan array binding signal (z-score),[12],-0.364
same,glycan array binding signal (z-score),Neu5Ac(a2-3)GalNAc,0.199
same,glycan array binding signal (z-score),[13],-0.409
same,glycan array binding signal (z-score),[14],-0.521
same,glycan array binding signal (z-score),[15],-0.461
same,glycan array binding signal (z-score),[16],-0.263
same,glycan array binding signal (z-score),[17],0.763
same,glycan array binding signal (z-score),[18],-0.217
same,glycan array binding signal (z-score),[19],-0.446
same,glycan array binding signal (z-score),[20],0.178
same,glycan array binding signal (z-score),[21],-0.168
same,glycan array binding signal (z-score),Neu5Ac(a2-6)GalNAc,-0.046
same,glycan array binding signal (z-score),[22],2.1
same,glycan array binding signal (z-score),Neu5Ac(a2-8)Neu5Ac,-0.048
same,glycan array binding signal (z-score),[23],-0.521
same,glycan array binding signal (z-score),[24],-0.222
same,glycan array binding signal (z-score),[25],-0.597
same,glycan array binding signal (z-score),[26],-0.669
same,glycan array binding signal (z-score),[27],-0.394
same,glycan array binding signal (z-score),[28],-0.478
same,glycan array binding signal (z-score),[29],0.467
same,glycan array binding signal (z-score),[30],-0.317
same,glycan array binding signal (z-score),[31],2.69
same,glycan array binding signal (z-score),Neu5Gc(a2-3)Gal(b1-4)Glc,-0.574
same,glycan array binding signal (z-score),[32],0.031
same,glycan array binding signal (z-score),[33],1.13
same,glycan array binding signal (z-score),[34],-0.02
same,glycan array binding signal (z-score),Neu5Gc(a2-6)GalNAc,-0.619
